Test results reported in PubChem BioAssay AID1347073 (National Center for Advancing Translational Sciences (NCATS), 2019).
In all, about 45,000 compounds went through this assay and about 200 (0.44%) were called active. Roughly 7% stayed inconclusive and do not appear here. The call rests on the fitted dose curve; in most records, active means well fitted activation curve with a large enough effect; inconclusive means small, poorly fitted or top-dose-only effect; inactive means no such curve, though single readings can be large or run the other way. The list shows a part of the results.

assay: qHTS of TDP-43 Inhibitors: NCGC Sytravon Library Screen; settings: yeast TDP-43 toxicity rescue, BacTiter-Glo growth, 24 h; series mostly up to 46.1 µM; growth rescue (activation): at the top concentration; further: nearly all actives have a fitted effect of over 55% in size; on growth rescue (activation): 0% is about no effect
Outline: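 TDP-43-expressing yeast, pregrown in raffinose, seeded at OD600 0.02 in galactose medium with compound for 24 hr at 30 deg C. Growth read by BacTiter-Glo luminescence, so rescue of toxicity appears as activation.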
Potency means the concentration at half of the fitted maximal effect.

Compound | growth rescue (activation) | Potency
CCOC(=O)CNc1nc(Cl)nc(NC(C)(C)C)n1 | inactive: 9.56% | 
CC(C)NC(=O)c1cc(C2CCCCN2C(=O)c2ccccc2)on1 (configuration not stated) | inactive: 8.72% | 
CCCNC(=O)Cn1cnc2sc(C(=O)N3CCN(Cc4ccc5c(c4)OCO5)CC3)c(C)c2c1=O | inactive: -2.47% | 
N#C/C(=C\c1ccc(-c2ccccc2)cc1)c1nc(-c2ccco2)cs1 | inactive: -0.484% | 
CCOc1ccc(N(CC(=O)NC2CCCC2)C(=O)CCC(=O)Nc2nc(C)cs2)cc1 | inactive: 1.43% | 
COCCNC(=O)/C(C#N)=C/c1cn(CC(=O)NCc2ccco2)c2ccccc12 | inactive: 8.4% | 
Cc1ccc(NC(=O)C[n+]2cc(-c3ccccc3)n3c2CCC3)c(C)c1 | inactive: -2.92% | 
COc1ccc2cc(C3CC(c4ccco4)=NN3C(=O)CCC(=O)O)c(Cl)nc2c1 (configuration not stated) | inactive: 1.96% | 
COc1cc(/C=N/O)cc(Br)c1OC | inactive: 31.1% | 
CCCNC(=O)Cn1cnc([N+](=O)[O-])n1 | inactive: -0.029% | 
CC(NC(=O)CSc1nnc(-c2cccc(S(=O)(=O)N3CCCCC3)c2)o1)C12CC3CC(CC(C3)C1)C2 (configuration not stated) | inactive: 17.1% | 
COc1cc(/C=C/c2nc(N)nc(-c3ccccc3O)n2)cc(OC)c1OC | inactive: 12.7% | 
CC1CC1C(=O)OCC(=O)NCc1ccccc1 (configuration not stated) | inactive: 19.6% | 
COc1ccc(-c2cn[nH]c2-c2ccc(OCc3ccccc3)cc2O)cc1 | inactive: 29.9% | 
CCC(C)NC(=S)N1CCN(Cc2ccccc2)CC1 (configuration not stated) | inactive: -4.88% | 
CC(C)(C)C1CCC(=NNc2ccc(S(N)(=O)=O)cc2[N+](=O)[O-])CC1 (configuration not stated) | inactive: -2.63% | 
NC(=O)C1CCN(S(=O)(=O)Cc2ccccc2Cl)CC1 | inactive: -12.3% | 
Nc1nnc(Cc2cccc(Br)c2)s1 | inactive: 15.4% | 
CCn1c(SCc2nc3ccccc3s2)nc2cc(S(=O)(=O)N3CCOCC3)ccc21 | inactive: 19.4% | 
COC(=O)c1cc2n(n1)CCCNC2=O | inactive: -10.9% | 
CCN(CC)CCN1C(=O)C(=O)/C(=C(/O)c2ccc3c(c2)CC(C)O3)C1c1ccc(OC)cc1 (configuration not stated) | inactive: 6.32% | 
CCOC(=O)CNC(=S)N(CCCN1CCCCCC1)Cc1cccs1 | inactive: 6.74% | 

Compound | growth rescue (activation) | Potency
N=c1n(CCCOc2ccccc2Cl)c2ccccc2n1CC(N)=O | inactive: 12.5% | 
COc1ccccc1C(CCN(Cc1ccccc1)C(C)=O)c1ccco1 (configuration not stated) | inactive: -24.5% | 
CCN(CC(=O)Nc1ccccc1OC)Cc1csc(CC(=O)Nc2ccc(C)cc2)n1 | inactive: -2.25% | 
C=CCn1c(SCC(=O)O)nc2sc(CC)cc2c1=O | inactive: 8.8% | 
Cc1sc2nc(SCC(=O)NCCOCCO)nc(N)c2c1C | inactive: -1.42% | 
CC(C(=O)OCC(=O)c1ccc(F)cc1)N1C(=O)C2C3C=CC(C3)C2C1=O (configuration not stated) | inactive: 7.09% | 
COc1cc2cc(CN(CCc3cccc(C)c3)C(=S)NCCCN3CCOCC3)c(=O)[nH]c2cc1OC | inactive: 11.6% | 
COc1ccc(NC(=O)c2cnc(NS(=O)(=O)c3ccccc3)nc2)cc1 | inactive: 7.43% | 
CC(=O)N1CCN(S(=O)(=O)c2cccc(C(=O)NNC(=O)COc3c(C)cccc3C)c2)CC1 | inactive: 7.55% | 
CCOC(=O)CSc1nc2ccsc2c(=O)[nH]1 | inactive: 1.14% | 
Cc1ccc(S(=O)(=O)/C(C#N)=C/c2ccccc2OCc2ccccc2)cc1 | inactive: 13.4% | 
O=C(CNCc1cccs1)Nc1ccc(S(=O)(=O)N2CCCCC2)cc1 | inactive: -0.685% | 
CCOC(=O)NC(=O)/C(C#N)=C\Nc1ccc(Cl)cc1Cl | inactive: 2.99% | 
COc1ccc(C(=O)CC(=O)C(=O)Nc2cc(OC)ccc2OC)cc1 | inactive: -5.83% | 
CC(=O)OCCn1c(C)[n+](CCOC(C)=O)c2cc(Cl)c(Cl)cc21 | inactive: -14.2% | 
O=C(O)CCN=Cc1c(O)c2ccccc2oc1=O | inactive: -2.34% | 
COc1cc(-c2cc3nc(NCCN(C)C)ccn3n2)cc(OC)c1OC | inactive: -7.99% | 
Oc1oc(-c2ccccc2Br)nc1C=Nc1ccc(Br)cn1 | inactive: 8.35% | 
COC(=O)C(=NNc1c(C)n(C)n(-c2ccccc2)c1=O)C(=O)OC | inactive: 0.502% | 
CCN(CC)S(=O)(=O)c1ccc(C(=O)NCC(=O)NCCCc2ccccc2)cc1 | inactive: 21.5% | 
CCCn1c(=O)c(C(=O)NCC2CCCO2)c(O)c2ccccc21 (configuration not stated) | inactive: -4.17% | 
O=C(/C=C/Nc1ccc(S(=O)(=O)Nc2cnc3ccccc3n2)cc1)c1ccccc1 | inactive: 23.1% | 

Compound | growth rescue (activation) | Potency
Cc1cccc(NC(=O)CSc2cc(C(=O)c3nccn3C)c3ccccc3n2)c1 | inactive: -4.63% | 
CCCc1nc2ccccc2n1CCc1ccccc1 | inactive: 11% | 
Cc1cccc(C)c1NC(=O)C1CCCN1S(=O)(=O)c1ccccc1 (configuration not stated) | inactive: 14.8% | 
CSCCC(NS(=O)(=O)c1ccc(Cl)cc1)C(=O)OCC(=O)NC1CC1 (configuration not stated) | inactive: 24.2% | 
O=C(O)C/C=C(/NC(=O)OCc1ccccc1)C(=O)OCc1ccccc1 | inactive: 5.47% | 
COc1cccc(C2c3c(-c4cc(Cl)c(C)cc4O)n[nH]c3C(=O)N2Cc2cccnc2)c1 (configuration not stated) | inactive: 1.59% | 
O=C(CCCn1cc([N+](=O)[O-])cn1)Nc1cccnc1 | inactive: 12.8% | 
CC(C)(C)NC(=O)C(=O)NN=C1CCCCCCC1 | inactive: 5% | 
CC(=O)c1cc(-c2ccccc2)n(CCC(=O)NC2CCC(C)CC2)c1C (configuration not stated) | inactive: -2.05% | 
O=c1c2c(n3cnnc3n1-c1ccccc1)-c1ccccc1CC21CCCCC1 | inactive: 17.5% | 
Cc1cc(OCC(O)CN2CCN(C)CC2)ccc1C(C)C (configuration not stated) | inactive: 7.08% | 
CCOC(=O)c1cccc(NC(=O)CCn2c(=O)oc3ccccc32)c1 | inactive: 16% | 
COc1ccc(C2=NN(CCC(=O)NCc3ccc4c(c3)OCO4)C(=O)CC2)cc1 | inactive: -6.3% | 
CCOC(=O)Cc1csc(NC(=O)/C=C/c2ccc(OC)cc2)n1 | inactive: 2.86% | 
COc1ccc(Cl)cc1C(=O)NNC(=O)CCNS(=O)(=O)c1ccccc1 | inactive: -0.0197% | 
CCCOC(=O)CCCN1C(=O)/C(=C2\SC(=S)N(CCCC(=O)OCCC)C2=O)SC1=S | inactive: 0.45% | 
COc1ccccc1CNc1nc(NCc2cccc(OC)c2OC)c2sccc2n1 | inactive: -4.45% | 
O=c1cc(CN2CCc3ccccc3C2)nc2sccn12 | inactive: -0.831% | 
COc1cc(C(=O)OCC(=O)NC2CCCCC2)cc(OC)c1OC | inactive: 2.7% | 
O=S(=O)(NCc1ccccc1)c1ccc(Br)c2nsnc12 | inactive: 24.2% | 
CC1(C(=O)NS(=O)(=O)c2cccc(C#N)c2)CCN1C(=O)Cc1ccccc1 (configuration not stated) | inactive: 9.24% | 
O=C1CC(C(=O)N2CCCc3ccccc32)CN1c1ccc(Cl)cc1 (configuration not stated) | inactive: 28.9% | 

Compound | growth rescue (activation) | Potency
COc1ccc(C(=O)NCC(=O)N2CCN(C(=O)c3ccco3)CC2)cc1OC | inactive: 0.0591% | 
CC(=O)NCCc1nc2cc(NC(=O)c3ccc([N+](=O)[O-])cc3)ccc2n1C | inactive: -5.03% | 
CCCCNC(=O)C1(C)CCN1C(=O)c1ccc(C(F)(F)F)nc1C (configuration not stated) | inactive: -1.17% | 
CCOC(=O)c1c(NC(=O)CSc2cccc[n+]2[O-])sc(C(=O)Nc2ccccc2)c1C | inactive: 14.5% | 
CCCc1[nH]nc2c1C(c1ccoc1)C(C#N)=C(N)O2 (configuration not stated) | inactive: -0.202% | 
CC(C)(C)c1ccc(NC(=O)Cn2cnc3cc([N+](=O)[O-])ccc3c2=O)cc1 | inactive: 7.37% | 
N#Cc1nc(COc2ccccc2)oc1NCCN1CCOCC1 | inactive: 18% | 
O=C(Nc1nc(-c2ccccn2)cs1)c1ncc(Cl)c(Cl)c1Cl | inactive: -78.1% | 
CCCS(=O)(=O)NC(=O)C1(C)CCN(C(=O)c2cccc3ccccc23)C1 (configuration not stated) | inactive: -8.97% | 
CCOC(=O)C1CN(C(C)(C)C)C(=O)C1=O (configuration not stated) | inactive: -21.1% | 
Cc1cc(NC(=O)c2cc(C)on2)n(-c2ccccc2)n1 | inactive: 7.75% | 
O=C(NCCNC(=O)c1ccc(Cl)cc1Cl)c1ccccn1 | inactive: 1.59% | 
Cc1cccnc1C(NC(=O)C1CCN(Cc2ccc(Cl)c(Cl)c2)CC1)c1ccc(Cl)cc1 (configuration not stated) | inactive: 6.99% | 
COc1ccc(-c2[nH]ncc2CN2CCCC(C(=O)c3cccc(OC)c3)C2)cc1 (configuration not stated) | inactive: 6.87% | 
COc1cc(NC(=O)C/C(C)=N/NC(=O)Cc2ccc(Cl)cc2)c(OC)cc1Cl | inactive: 18.9% | 
Cc1ccc(F)c(S(=O)(=O)NC(=O)C2(C)CCN2C(=O)c2ccc(C(F)(F)F)nc2C)c1 (configuration not stated) | inactive: 2.82% | 
COC(=O)C1CCN(C(=O)Cn2nnc(-c3ccccc3)n2)CC1 | inactive: -2.52% | 
CCOC(=O)COc1ccccc1/C=C1/NC(=O)NC1=O | inactive: 18.9% | 
COc1ccc(O)c(C2=Nc3ccccc3N=C(c3cccs3)C2)c1 | inactive: -3.69% | 
COc1ccc(NC(=O)C2Cc3c(-c4ccc(Cl)cc4)ccnc3O2)cc1 (configuration not stated) |  | active: 20 µM
CCCc1ccc(C(O)c2ncc(-c3cccc(F)c3)[nH]2)cc1 (configuration not stated) | inactive: 13.1% | 
Cc1ccc2ccc3cccnc3c2n1 | inactive: 10.2% | 

Compound | growth rescue (activation) | Potency
O=C(Cc1ccccc1[N+](=O)[O-])Nc1nccs1 | inactive: 24.9% | 
CCOC(=O)C1(Cc2cccc(Cl)c2)CCCN(CCO)C1 (configuration not stated) | inactive: 11.2% | 
Cc1ccn(Cc2n[nH]c(=S)n2Cc2ccccc2)n1 | inactive: -4.31% | 
CC(=O)c1sc(N/N=C/c2cccc([N+](=O)[O-])c2)nc1C | inactive: 6.3% | 
CC(NC(=O)C1CCC(CNc2c(N3CCCCC3)c(=O)c2=O)CC1)c1ccccc1 (configuration not stated) | inactive: -13.8% | 
O=C(CSC(=O)c1ccccc1)Nc1ccccc1F | inactive: 14% | 
O=C(COC(=O)[C@@H]1CCCN1C(=O)c1cccs1)Nc1cccc([N+](=O)[O-])c1 | inactive: 25.8% | 
O=C(N/N=C/c1ccc([N+](=O)[O-])o1)C1CC1 | inactive: 26% | 
O=C(CNC(=O)c1ccc(Cl)c([N+](=O)[O-])c1)NCC1CCCO1 (configuration not stated) | inactive: 4.37% | 
COc1cccc(OC)c1C(=O)N=c1sc2cc(S(C)(=O)=O)ccc2n1C | inactive: 6.6% | 
c1ccc(-c2nc3ccccn3c2NC2CCCC2)nc1 | inactive: -20.9% | 
CCN(CC(=O)Nc1ccc(C(C)=O)cc1)CC(=O)Nc1ccc2c(c1)OCCO2 | inactive: -11.5% | 
CCN(Cc1ccncc1)Cc1cn[nH]c1-c1ccc(OC)cc1F | inactive: 6.77% | 
Cc1cc(C(=O)COC(=O)C23CC4CC(CC(O)(C4)C2)C3)c(C)n1C | inactive: -2.2% | 
COc1ccc(S(=O)(=O)N2CCC(C(=O)NC(C)CCc3ccccc3)CC2)cc1 (configuration not stated) | inactive: 19.4% | 
Cc1ccc(S(=O)(=O)N2CC(O)CC2C(=O)OCC(=O)Nc2ccc([N+](=O)[O-])cc2C(F)(F)F)cc1C (configuration not stated) | inactive: 24.1% | 
CCn1cc(CNC(=O)CC2C(=O)NCCN2CC(c2ccccc2)c2ccccc2)cn1 (configuration not stated) | inactive: -2.72% | 
Cc1ccc(CNC(=O)c2ccc3c(c2)NC(=O)C(N2CCOCC2)S3)cc1 (configuration not stated) | inactive: -21.1% | 
COc1ccc(CCNC(=O)c2ccc(=O)[nH]c2)cc1 | inactive: -4.23% | 
